Laboratory results from ChEMBL document CHEMBL4888484, “Replenishing the malaria drug discovery pipeline: Screening and hit evaluation of the MMV Hit Generation Library 1 (HGL1) against asexual blood stage Plasmodium falciparum ,using a nano luciferase reporter read-out” (2022).
Among all 150,000 compounds or so, about 540 (0.36%) showed an effect of 50% or more. Some of the results follow.

Test system: Plasmodium falciparum
Test: Primary screen in NF54 nanoGlo assay, in single point, at 2uM, 72h; a lower Z score goes with more inhibition
Assay type: functional, Erythrocyte
Settings: timepoint 72 hour

Row | SMILES | % Inhibition [%] | Z score
1 | Cc1noc(C)c1N(C)CC(=O)NCC(C)C | 27 | -3.01
2 | COc1ccc(Nc2nc(C(=O)Nc3ncc(C)s3)cs2)cc1OC | 30 | -1.16
3 | CCn1nc(C)c(CN[C@@H]2COC(C)(C)C2)n1 | -2 | 0.22
4 | CN(Cc1c[nH]nc1-c1c(F)cccc1F)CC1CCOCC1 | 3 | -0.36
5 | c1ccc2c(-c3noc4c3CN(CCN3CCOCC3)CC4)cccc2c1 | 4 | -0.54
6 | O=S(=O)(c1ccc(F)cc1)N1CCc2nc(N3CCCC3)nc(Oc3ccc(F)cc3)c2C1 | -6 | 0.75
7 | CCC(N[C@H](C)CO)c1cccc(Cl)c1F (stereo partly drawn) | -9 | 1.73
8 | CCN(CC)C(=O)N(C)c1ccc2ccccc2n1 | -12 | 1.21
9 | O=C(NCc1cccnc1)[C@@H]1C[C@@H](O)CN1C1CCN(C(=O)c2cc3ccccc3[nH]2)CC1 | 2 | -0.22
10 | CCN(C(=O)c1cn(CCC(C)C)nn1)c1ccccc1Cl | -1 | 0.1
11 | O=C(CCc1nc2ccccc2[nH]1)N1CC[C@H](Cc2ccc(CO)cc2)C1 | -8 | 1.55
12 | NC(=NOCC(=O)N1CCCc2ccccc21)c1ccccc1 | -1 | 0.11
13 | Cc1nn(C)c2ncnc(N3CC(C)(C)N(C)C[C@@H]3C)c12 | 0 | 0.03
14 | CCC[C@H]1CN(C(=O)Cc2ccncc2)C[C@@H]1NC(C)=O | -3 | 0.45
15 | O=C(NC1CCC(O)CC1)C(F)(F)F (stereo not drawn) | -6 | 1.08
16 | CCOC(=O)c1nnsc1Nc1ccc(N)cc1 | 7 | -0.91
17 | CN(C)[C@H]1[C@H](NC(=O)CCc2cccnc2)[C@@H]2CCO[C@@H]21 | -8 | 1.46
18 | CC1=CC(=C2CC(C)(C)N=C2C)C=C(C)C12CC(C)(C)N=C2C (stereo not drawn) | 6 | -0.73
19 | CC(C)n1cc(C(=O)N2CCC(O)(Cc3cccc(F)c3)CC2)cn1 | -13 | 1.48
20 | CCC(CC)CN(CC)C(=O)Cc1ccn(CC(F)(F)F)n1 | -9 | 1.11
21 | O=C(N[C@H]1CCc2nccn2C1)C1(c2cccs2)CCCCC1 | -4 | 0.8
22 | CC(C)(C)c1nnn(CC(=O)Nc2ccnn2C2CCCCC2)n1 | -6 | 0.8
23 | O=C(Nc1c2c(nc3ccccc13)CCCC2)c1cccc(Cl)c1 | -9 | 1.13
24 | C[C@H](NC(=O)NCCCN(C)c1ccccc1)[C@H](O)c1ccc(O)cc1 | -14 | 2.57
